# Test results taken from the supplement of paper PMC8728848.
# This is one part of the list.
# Experiments:
# Assay in all cases: glycan array binding signal (z-score within array); higher = stronger binding
# Settings in all cases: glycan notation: IUPAC condensed, linker removed
# [1] = target: Fuc(a1-2)Gal(b1-4)GlcNAc(b1-3)Gal(b1-4)GlcNAc(b1-3)Gal(b1-4)GlcNAc
# In short: (§1)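 Arrays were curated from the Consortium for Functional Glycomics database, 3228 in total, and kept only where the protein sequence was available. Binding is expressed as a within-array Z-score. This score was averaged across arrays of the same protein sequence at different concentrations or buffers and across linkers, and negative values can be read as non-binding.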
# [2] = target: Fuc(a1-2)Gal(b1-4)GlcNAc(b1-3)GalNAc
# In short: as §1
# [3] = target: Fuc(a1-2)Gal(b1-4)GlcNAc(b1-3)[Fuc(a1-2)Gal(b1-4)GlcNAc(b1-6)]GalNAc
# In short: as §1
# [4] = target: Fuc(a1-2)Gal(b1-4)GlcNAc(b1-3)[Fuc(a1-3)[Gal(b1-4)]GlcNAc(b1-6)]Gal(b1-4)Glc
# In short: as §1
# [5] = target: Fuc(a1-2)Gal(b1-4)GlcNAc(b1-6)GalNAc
# In short: as §1
# [6] = target: Fuc(a1-2)Gal(b1-4)GlcNAc6S
# In short: as §1
# [7] = target: Fuc(a1-2)Gal(b1-4)[Fuc(a1-3)]GlcNAc
# In short: as §1
# [8] = target: Fuc(a1-2)Gal(b1-4)[Fuc(a1-3)]GlcNAc(b1-2)Man(a1-3)[Fuc(a1-2)Gal(b1-4)[Fuc(a1-3)]GlcNAc(b1-2)Man(a1-6)]Man(b1-4)GlcNAc(b1-4)[Fuc(a1-6)]GlcNAc
# In short: as §1
# [9] = target: Fuc(a1-2)Gal(b1-4)[Fuc(a1-3)]GlcNAc(b1-2)[Fuc(a1-2)Gal(b1-4)[Fuc(a1-3)]GlcNAc(b1-4)]Man(a1-3)[Fuc(a1-2)Gal(b1-4)[Fuc(a1-3)]GlcNAc(b1-2)Man(a1-6)]Man(b1-4)GlcNAc(b1-4)GlcNAc
# In short: as §1
# [10] = target: Fuc(a1-2)Gal(b1-4)[Fuc(a1-3)]GlcNAc(b1-3)Gal(b1-4)[Fuc(a1-3)]GlcNAc
# In short: as §1
# [11] = target: Fuc(a1-2)Gal(b1-4)[Fuc(a1-3)]GlcNAc(b1-3)Gal(b1-4)[Fuc(a1-3)]GlcNAc(b1-3)Gal(b1-4)[Fuc(a1-3)]GlcNAc
# In short: as §1
# [12] = target: Fuc(a1-2)Gal(b1-4)[Fuc(a1-3)]GlcNAc(b1-3)GalNAc
# In short: as §1
# [13] = target: Fuc(a1-2)Gal(b1-4)[Fuc(a1-3)]GlcNAc(b1-3)[Neu5Ac(a2-6)Gal(b1-4)GlcNAc(b1-6)]Gal(b1-4)Glc
# In short: as §1
# [14] = target: Fuc(a1-2)Gal3S(b1-4)GlcNAc
# In short: as §1
# [15] = target: Fuc(a1-2)Gal6S(b1-3)GlcNAc
# In short: as §1
# [16] = target: Fuc(a1-2)Gal6S(b1-3)GlcNAc6S
# In short: as §1
# [17] = target: Fuc(a1-2)Gal6S(b1-4)Glc
# In short: as §1
# [18] = target: Fuc(a1-2)Gal6S(b1-4)Glc6S
# In short: as §1
# [19] = target: Fuc(a1-2)[Gal(a1-3)]Gal
# In short: as §1
# [20] = target: Fuc(a1-2)[Gal(a1-3)]Gal(b1-3)GalNAc
# In short: as §1
# [21] = target: Fuc(a1-2)[Gal(a1-3)]Gal(b1-3)GalNAc(b1-3)Gal(a1-4)Gal(b1-4)Glc
# In short: as §1
# [22] = target: Fuc(a1-2)[Gal(a1-3)]Gal(b1-3)GlcNAc
# In short: as §1
# [23] = target: Fuc(a1-2)[Gal(a1-3)]Gal(b1-3)GlcNAc(b1-2)Man(a1-3)[Fuc(a1-2)[Gal(a1-3)]Gal(b1-3)GlcNAc(b1-2)Man(a1-6)]Man(b1-4)GlcNAc(b1-4)GlcNAc
# In short: as §1
# [24] = target: Fuc(a1-2)[Gal(a1-3)]Gal(b1-3)GlcNAc(b1-2)Man(a1-3)[Fuc(a1-2)[Gal(a1-3)]Gal(b1-3)GlcNAc(b1-2)Man(a1-6)]Man(b1-4)GlcNAc(b1-4)[Fuc(a1-6)]GlcNAc
# In short: as §1
# [25] = target: Fuc(a1-2)[Gal(a1-3)]Gal(b1-3)GlcNAc(b1-3)GalNAc
# In short: as §1
# [26] = target: Fuc(a1-2)[Gal(a1-3)]Gal(b1-3)GlcNAc(b1-6)GalNAc
# In short: as §1
# [27] = target: Fuc(a1-2)[Gal(a1-3)]Gal(b1-4)Glc
# In short: as §1
# [28] = target: Fuc(a1-2)[Gal(a1-3)]Gal(b1-4)GlcNAc
# In short: as §1
# [29] = target: Fuc(a1-2)[Gal(a1-3)]Gal(b1-4)GlcNAc(b1-2)Man
# In short: as §1
# [30] = target: Fuc(a1-2)[Gal(a1-3)]Gal(b1-4)GlcNAc(b1-2)Man(a1-3)[Fuc(a1-2)[Gal(a1-3)]Gal(b1-4)GlcNAc(b1-2)Man(a1-6)]Man(b1-4)GlcNAc(b1-4)GlcNAc
# In short: as §1
binder,measurement,setting,value
Thrombomodulin (Mus musculus) (protein) ALAKLQPTGSQCVEHECFALFQGPATFLDASQACQRLQGHLMTVRSSVAADVISLLLSQSSMDLGPWIGLQLPQGCDDPVHLGPLRGFQWVTGDNHTSYSRWARPNDQTAPLCGPLCVTVSTATEAAPGEPAWEEKPCETETQGFLCEFYFTASC,glycan array binding signal (z-score),[1],-0.164
same,glycan array binding signal (z-score),[2],-0.241
same,glycan array binding signal (z-score),[3],-0.02
same,glycan array binding signal (z-score),[4],-0.074
same,glycan array binding signal (z-score),[5],-0.149
same,glycan array binding signal (z-score),[6],-0.496
same,glycan array binding signal (z-score),[7],-0.018
same,glycan array binding signal (z-score),[8],-0.007
same,glycan array binding signal (z-score),[9],0.17
same,glycan array binding signal (z-score),[10],-0.167
same,glycan array binding signal (z-score),[11],-0.162
same,glycan array binding signal (z-score),[12],-0.11
same,glycan array binding signal (z-score),[13],-0.28
same,glycan array binding signal (z-score),[14],-0.236
same,glycan array binding signal (z-score),[15],-0.367
same,glycan array binding signal (z-score),[16],0.036
same,glycan array binding signal (z-score),[17],0
same,glycan array binding signal (z-score),[18],-0.056
same,glycan array binding signal (z-score),[19],-0.245
same,glycan array binding signal (z-score),[20],-0.148
same,glycan array binding signal (z-score),[21],-0.225
same,glycan array binding signal (z-score),[22],0.177
same,glycan array binding signal (z-score),[23],-0.306
same,glycan array binding signal (z-score),[24],-0.076
same,glycan array binding signal (z-score),[25],-0.103
same,glycan array binding signal (z-score),[26],-0.252
same,glycan array binding signal (z-score),[27],0.226
same,glycan array binding signal (z-score),[28],-0.22
same,glycan array binding signal (z-score),[29],-0.27
same,glycan array binding signal (z-score),[30],-0.022
